The text below walks through data of PMC5892938.

The list shows a part of the results. At the low end of the ranking, values are background and their order means little.

The assay addresses GST-SBP-SLBP (stem-loop binding protein) (UniProt Q14493). The experiment in a line: targeted RNA Bind-n-Seq.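 Note: DESeq read counts versus GST-SBP nonspecific binding control pulldown.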 As to conditions: RBNS binding buffer: 25 mM Tris pH 7.5, 150 mM KCl, 3 mM MgCl2, 0.1% Tween, 0.5 mg/mL BSA, 1 mM DTT; 27 nM protein, 750 pM RNA pool; temperature not stated; high values mean tight binding.
Regarding “GGUCACGUCUCAAUCAACUCUUUUUCCAGGGAAAUCCCUGGUUAAUUCAACAGCUCGCAGUCAAG”, the binding signal (log2 fold change) is -0.134.

As for “GGUCACGUCUCAAUCAACUCCCCAGAGGGGGGGAAAACCCCUUUACCCUCGAAAUCAACAGCUCGCAGUCAAG”, the binding signal (log2 fold change) is -0.164. For “GGUCACGUCUCAAUCAACUCUUCUUCCAGGGAAACCCCUGGCUUAUUCAACAGCUCGCAGUCAAG”, the binding signal (log2 fold change) is 0.137.

For “GGUCACGUCUCAAUCAACUCAUCCUCAGGAGUUUCCUCCUGCAUAGUCAACAGCUCGCAGUCAAG”, the binding signal (log2 fold change) came to 0.106. Then “GGUCACGUCUCAAUCAACUCUAUCUCAGGAGUUUUCUCCUGUUAACUCAACAGCUCGCAGUCAAG”, with 0.0651. Take “GGUCACGUCUCAAUCAACUCUUCUUCCAGGGAAACCCCUGGUAAUCUCAACAGCUCGCAGUCAAG”: the binding signal (log2 fold change) was determined as 0.352. “GGUCACGUCUCAAUCAACUCAUCGCCAGGAGUUUUCUCCUGUAUACUCAACAGCUCGCAGUCAAG”: the binding signal (log2 fold change) was determined as 0.0118.

As for “GGUCACGUCUCAAUCAACUCUAUCUCAGGAGUUUCCUCCUGUUUUGUCAACAGCUCGCAGUCAAG”, the binding signal (log2 fold change) amounted to 0.0279. As for “GGUCACGUCUCAAUCAACUCAUUAGAGGGGGGGAAAACCCCUUUGCCCUCGUCAUCAACAGCUCGCAGUCAAG”, the binding signal (log2 fold change) was 0.19. With “GGUCACGUCUCAAUCAACUCCCUAGAGGGGGGGAAAACCCCUUUACCCUCAACCUCAACAGCUCGCAGUCAAG”, the binding signal (log2 fold change) was -0.449. For the sequence “GGUCACGUCUCAAUCAACUCAUCCUCAGGAGUUUGCUCCUGCAUUCUCAACAGCUCGCAGUCAAG”, the binding signal (log2 fold change) worked out at 0.219. For the sequence “GGUCACGUCUCAAUCAACUCCCUGGAGGGGGGGAAAACCCCUUUACCCUCAUUCUCAACAGCUCGCAGUCAAG”, the binding signal (log2 fold change) was -0.741. Then “GGUCACGUCUCAAUCAACUCAAUCUCCAGGGAAAACCCUGGCUAUGUCAACAGCUCGCAGUCAAG”, with 0.19. Regarding “GGUCACGUCUCAAUCAACUCAUUUUCCAGGGAAAGCCCUGGCGUUUUCAACAGCUCGCAGUCAAG”, the binding signal (log2 fold change) worked out at 0.0924. With “GGUCACGUCUCAAUCAACUCUAUCUCAGGAGUUUGCUCCUGCUUUUUCAACAGCUCGCAGUCAAG” the figure was -0.135. Take “GGUCACGUCUCAAUCAACUCUUUCGCAGGAGUUUUCUCCUGGUUUUUCAACAGCUCGCAGUCAAG”: the binding signal (log2 fold change) was 0.0124.

Take “GGUCACGUCUCAAUCAACUCACAAGAGGGGGGGAAAACCCCUUUACCCUCCGUAUCAACAGCUCGCAGUCAAG”: the binding signal (log2 fold change) was -0.371. With “GGUCACGUCUCAAUCAACUCAUAAGAGGGGGGGAAAACCCCUUUACCCUCAACAUCAACAGCUCGCAGUCAAG” the figure was -0.112. Then “GGUCACGUCUCAAUCAACUCAUCCUCAGGAGUUUCCUCCUGCAAUUUCAACAGCUCGCAGUCAAG”, with -0.0376; and “GGUCACGUCUCAAUCAACUCUUUUUCAGGAGUUUACUCCUGCUUAUUCAACAGCUCGCAGUCAAG”, with 0.000858; and “GGUCACGUCUCAAUCAACUCAUCCUCCAGGGAAACCCCUGGCAAUUUCAACAGCUCGCAGUCAAG”, with 0.0192.

With “GGUCACGUCUCAAUCAACUCUUCUUCCAGGGAAAACCCUGGCUUUUUCAACAGCUCGCAGUCAAG”, the binding signal (log2 fold change) was -0.0294. As to “GGUCACGUCUCAAUCAACUCUUUUUCAGGAGUUUUCUCCUGUAAUGUCAACAGCUCGCAGUCAAG”, the binding signal (log2 fold change) turned out to be 0.0264. Then “GGUCACGUCUCAAUCAACUCAAUCUCAGGAGUUUACUCCUGCUAAGUCAACAGCUCGCAGUCAAG”, with 0.0635; and “GGUCACGUCUCAAUCAACUCAUCCUCAGGAGUUUCCUCCUGUAAUUUCAACAGCUCGCAGUCAAG”, with 0.0333. On to “GGUCACGUCUCAAUCAACUCUUUCCCAGGAGUUUACUCCUGCUUUUUCAACAGCUCGCAGUCAAG”, for which the binding signal (log2 fold change) was 0.0401. With “GGUCACGUCUCAAUCAACUCUAAAGAGGGGGGGAAAACCCCUUUGCCCUCAUAAUCAACAGCUCGCAGUCAAG”, the binding signal (log2 fold change) is -0.0442. “GGUCACGUCUCAAUCAACUCAAUCUCAGGAGUUUCCUCCUGCUAAUUCAACAGCUCGCAGUCAAG”: the binding signal (log2 fold change) is -0.142.

In the case of “GGUCACGUCUCAAUCAACUCUUUCUCCAGGGAAAGCCCUGGUAAUGUCAACAGCUCGCAGUCAAG”, the binding signal (log2 fold change) is -0.368. With “GGUCACGUCUCAAUCAACUCAUCGUCAGGAGUUUCCUCCUGUUUUCUCAACAGCUCGCAGUCAAG” the figure was 0.127; with “GGUCACGUCUCAAUCAACUCUUCCCCAGGAGUUUACUCCUGCAAAUUCAACAGCUCGCAGUCAAG”, 0.0676. Take “GGUCACGUCUCAAUCAACUCAUCCCCCAGGGAAAGCCCUGGCAAUUUCAACAGCUCGCAGUCAAG”: the binding signal (log2 fold change) is -0.135.

Consider “GGUCACGUCUCAAUCAACUCUUCCUCCAGGGAAACCCCUGGUUAAUUCAACAGCUCGCAGUCAAG”, for which the binding signal (log2 fold change) was -0.249. Then “GGUCACGUCUCAAUCAACUCUAUUCCAGGAGUUUACUCCUGCAAAUUCAACAGCUCGCAGUCAAG”, with -0.177.

Turning to “GGUCACGUCUCAAUCAACUCAUCCUCCAGGGAAACCCCUGGUUAACUCAACAGCUCGCAGUCAAG”, the binding signal (log2 fold change) was found to be 0.221. Then “GGUCACGUCUCAAUCAACUCUACGCCAGGAGUUUUCUCCUGUUAAUUCAACAGCUCGCAGUCAAG”, with -0.0622; and “GGUCACGUCUCAAUCAACUCUUUUUCAGGAGUUUUCUCCUGCAAUGUCAACAGCUCGCAGUCAAG”, with -0.0537; and “GGUCACGUCUCAAUCAACUCAUUUCCAGGAGUUUACUCCUGCUAACUCAACAGCUCGCAGUCAAG”, with 0.0184. Then “GGUCACGUCUCAAUCAACUCAAAAGAGGGGGGGAAAACCCCUUUGCCCUCAAACUCAACAGCUCGCAGUCAAG”, with 0.0219; and “GGUCACGUCUCAAUCAACUCUUUCUCCAGGGAAAUCCCUGGCUAAUUCAACAGCUCGCAGUCAAG”, with 0.097. For the sequence “GGUCACGUCUCAAUCAACUCAUCCUCAGGAGUUUGCUCCUGUUUUCUCAACAGCUCGCAGUCAAG”, the binding signal (log2 fold change) is -0.0589. Regarding “GGUCACGUCUCAAUCAACUCUUCUUCCAGGGAAAACCCUGGCUAACUCAACAGCUCGCAGUCAAG”, the binding signal (log2 fold change) is -0.194. Then “GGUCACGUCUCAAUCAACUCGUCUUCAGGAGUUUUCUCCUGCUAAUUCAACAGCUCGCAGUCAAG”, with 0.0799; and “GGUCACGUCUCAAUCAACUCAUCUUCAGGAGUUUUCUCCUGUAUAUUCAACAGCUCGCAGUCAAG”, with -0.0228. Consider “GGUCACGUCUCAAUCAACUCAGUCUCCAGGGAAAUCCCUGGCUUAUUCAACAGCUCGCAGUCAAG”, for which the binding signal (log2 fold change) is 0.0312. Regarding “GGUCACGUCUCAAUCAACUCUACUCCAGGAGUUUCCUCCUGCUUACUCAACAGCUCGCAGUCAAG”, the binding signal (log2 fold change) came out at 0.0902.

Regarding “GGUCACGUCUCAAUCAACUCAGUCCCAGGAGUUUCCUCCUGCUUUUUCAACAGCUCGCAGUCAAG”, the binding signal (log2 fold change) worked out at 0.019. With “GGUCACGUCUCAAUCAACUCAAUUCCAGGAGUUUCCUCCUGCAUAGUCAACAGCUCGCAGUCAAG” the figure was 0.114.
